Paper PMC4336329 (PLoS ONE, 2015)
About 2,200 (0.71%) of roughly 310,000 compounds showed an effect of 50% or more. The effect is printed as a negative number. Some of the results follow.

The compounds below were run against human ether-à-go-go-related gene (hERG) potassium channel (human, UniProt Q12809) (assay: primary screen, population patch clamp on CHO cells stably expressing hERG).
Chain of human ether-à-go-go-related gene (hERG) potassium channel (Q12809 whole entry, looked up): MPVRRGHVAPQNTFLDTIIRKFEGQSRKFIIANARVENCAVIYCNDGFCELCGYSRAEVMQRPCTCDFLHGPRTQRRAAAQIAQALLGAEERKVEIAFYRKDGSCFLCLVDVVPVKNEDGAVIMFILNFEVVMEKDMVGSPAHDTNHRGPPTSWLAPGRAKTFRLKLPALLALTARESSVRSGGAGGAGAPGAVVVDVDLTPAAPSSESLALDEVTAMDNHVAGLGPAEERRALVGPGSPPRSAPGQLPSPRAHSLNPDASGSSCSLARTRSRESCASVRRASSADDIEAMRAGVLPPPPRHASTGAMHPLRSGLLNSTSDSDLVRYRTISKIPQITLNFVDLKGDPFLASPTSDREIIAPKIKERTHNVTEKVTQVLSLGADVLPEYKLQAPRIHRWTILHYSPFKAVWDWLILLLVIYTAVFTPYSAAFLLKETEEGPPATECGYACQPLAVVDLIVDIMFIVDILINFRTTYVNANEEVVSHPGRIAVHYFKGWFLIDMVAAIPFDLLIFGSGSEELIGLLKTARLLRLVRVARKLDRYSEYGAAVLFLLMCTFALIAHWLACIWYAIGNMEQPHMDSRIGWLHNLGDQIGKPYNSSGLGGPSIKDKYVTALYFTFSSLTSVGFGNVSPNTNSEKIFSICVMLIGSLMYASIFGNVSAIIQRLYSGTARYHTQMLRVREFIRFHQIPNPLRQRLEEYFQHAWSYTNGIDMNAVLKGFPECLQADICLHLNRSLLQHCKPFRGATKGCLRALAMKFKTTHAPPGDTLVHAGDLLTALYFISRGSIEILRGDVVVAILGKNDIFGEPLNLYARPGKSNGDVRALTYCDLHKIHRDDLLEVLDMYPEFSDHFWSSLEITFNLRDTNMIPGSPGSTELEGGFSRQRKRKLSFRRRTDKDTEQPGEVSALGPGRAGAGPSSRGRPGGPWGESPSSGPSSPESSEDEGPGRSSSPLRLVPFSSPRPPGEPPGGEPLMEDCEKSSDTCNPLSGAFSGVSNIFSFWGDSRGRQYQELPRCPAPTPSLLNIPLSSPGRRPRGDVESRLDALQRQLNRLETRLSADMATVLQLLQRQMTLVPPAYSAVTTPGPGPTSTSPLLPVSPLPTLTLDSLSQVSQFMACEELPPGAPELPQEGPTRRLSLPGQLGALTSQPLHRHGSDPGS

Row | SMILES | hERG current change (%, negative = inhibition) at 1uM [%]
1 | COc1ccc(CCNC(=O)C(=O)Nc2ccc3nc4n(c(=O)c3c2)CCCCC4)cc1OC | 4.3
2 | Cc1ccc(S(=O)(=O)NNC(=O)c2cnn(-c3ccc(Cl)cc3)c2C(F)(F)F)cc1 | 4.73
3 | CC(=O)N1CCCc2cc(S(=O)(=O)NCCC3=CCCCC3)ccc21 | 4.97
4 | O=C(NCc1ccccc1Br)c1ccc2c(c1)OCCO2 | 15.2
5 | CC(=O)NC1C(OCc2ccccc2)OC(CO)C(OC(C)=O)C1OC(C)=O (centres unmarked) | 2.17
6 | CCCS(=O)(=O)N1CCC(C(=O)NCCCN2CCCC2=O)CC1 | 11.3
7 | O=C(O)/C=C/C(=O)Nc1ccc(O)cc1 | 12.1
8 | CC(NS(=O)(=O)c1ccccc1)C1COc2ccccc2O1 (centres unmarked) | 0.411
9 | Cc1cccc(N=Cc2[nH]c3ccc(Br)c(Cl)c3c2O)c1 | 21.4
10 | CC(C)O.CN1CCc2c(c3c(n2C)CCN(C)[C@@H]3c2cccnc2)[C@H]1c1cccnc1.Cl | -2.27
11 | O=C(NC(=S)NCCN1CCOCC1)c1ccccc1Cl | 10
12 | CC12CCC(C/C1=N/NC(=O)Nc1ccccc1)C2(C)C (centres unmarked) | 5.03
13 | CCN(CC)C(=O)COc1ccc(-c2nnc(N3CCCCC3)c3ccccc23)cc1 | 6.64
14 | Cn1c2ccccc2c2ncn(CCCN3CCOCC3)c(=O)c21 | -6.04
15 | COc1ccccc1C1C(C(N)=O)=C(C)Nc2ncnn21 (centres unmarked) | -2.68
16 | CCC(C)(C)NC(=O)C(c1ccc(OC)cc1)N(C(=O)CCC(=O)Nc1cc(C)on1)c1ccc2c(c1)OCCO2 (centres unmarked) | 11.3
17 | C#CC[N+](C)(C)CC#Cc1ccccc1.[Br-] | 14.3
18 | Cc1ccccc1N1CCN(S(=O)(=O)c2ccccc2)CC1 | 5.62
19 | COc1ccc(C(=O)NCCSCc2ccccc2C)cc1 | -5.69
20 | COc1cccc(CNC(=O)CCC2CCCN(C/C=C/c3ccccc3OC)C2)c1 (centres unmarked) | -34.5
21 | CCCCC(O)(CCCC)C(=O)NN(C(=O)CCl)c1ccccc1 | 14.9
22 | Cc1cccc(C)c1NC(=O)C(c1cccc([N+](=O)[O-])c1)N(C)C(=O)c1ccccn1 (centres unmarked) | -6.29

Row | SMILES | hERG current change (%, negative = inhibition) at 1uM [%]
23 | O=C(Nc1ccccc1)N1CCn2c1nc1ccccc12 | 15.6
24 | COC(=O)N/N=C/c1cn(CCCOc2ccccc2)c2ccccc12 | 0.62
25 | O=c1oc2ccc3ccccc3c2cc1-c1nc2ccccc2o1 | 14
26 | Cc1ccc(N2C(=O)c3cccc4c([N+](=O)[O-])ccc(c34)C2=O)c2cccnc12 | 10.2
27 | O=C(Nc1ccc(N2CCCC2)cc1)c1ccc2ccccc2c1 | -2.3
28 | O=C(c1ccc([N+](=O)[O-])cc1)N1CCN(C(=O)c2cccs2)CC1 | -31
29 | COc1cccc(OC(=O)c2cc3ccccc3oc2=O)c1 | 3.86
30 | CCC1CCCCN1S(=O)(=O)c1ccc(NC(=O)CSc2ncccc2C(=O)O)cc1 (centres unmarked) | 2.19
31 | CCCSc1nnc(NC(=O)Nc2ccc(F)cc2)s1 | 10.2
32 | O=[N+]([O-])c1ccc(N2CCCCC2)c2ncccc12 | -0.566
33 | Cc1[nH]c2ccccc2c1NC(=O)CN1CCN(C(=O)c2ccco2)CC1 | 14.1
34 | CCOC(=O)C1=NNC(C(=O)c2ccccc2)C1c1ccc(OC)cc1 (centres unmarked) | 15.6
35 | O=C(Cn1nnc2ccccc2c1=O)Nc1cc(C(F)(F)F)ccc1N1CCOCC1 | 6.52
36 | C/C(CC(=O)Nc1ccc(Cl)c(C(F)(F)F)c1)=N\NC(=O)c1cccc(O)c1 | -7.3
37 | COCCOC(=O)C1=C(C)NC(=O)NC1C1CC=CCC1 (centres unmarked) | 7.82
38 | Cn1c(=O)c2c(-c3ccccc3)n(N3CCOCC3)cc2n(C)c1=O | -19.1
39 | NC(=O)c1nsc(C(=O)N(Cc2ccco2)C(C(=O)NCc2ccccc2)c2ccc(O)cc2)c1N (centres unmarked) | 4.4
40 | CCCCOc1ccc(NC(=O)CN2CCN(C(=O)OCC)CC2)cc1.Cl | -8.98
41 | Cn1c(NCc2cccc(Br)c2)nc2ccccc21 | -1.85
42 | O=C(NC1CCCC1)C1CC(=O)N(c2ccc(F)cc2)C1 (centres unmarked) | 17.3
43 | CC(=O)NC(CC(=O)NC1CCCCC1)c1ccccc1 (centres unmarked) | 2.36
44 | COCCCNC(=O)c1ccccc1NS(C)(=O)=O | 12.4
